Not every entry of the source has a single result; some have several. They are shown here; other results are not. The source may hold further records. Values that stand side by side repeat one measurement (runs, samples, wells, individuals or studies). Signs of the kind (2×) give the number of equal values in this list.
System: 171881-019-R-J1-PDC multicell spheroid viability
Assay: Anticancer human tumor 171881-019-R-J1-PDC patient-derived invasive breast carcinoma cell line growth inhibition [IpAb]
Settings: stronger effect = lower value
Source text: Combinatorial screen of targeted agents with ipatasertib and abemaciclib in multi-cell type tumor spheroids
A high-throughput screen of multi-cell type tumor spheroids was designed to identify active combinations of targeted small molecules and ipatasertib or abemaciclib. Complex spheroids include a stromal component modeled by human endothelial cells (HUVEC) and fibroblasts modeled by human mesenchymal stem cells (MSCs). The concentration ranges selected for each drug and investigational agent were based upon clinically achievable concentrations if the clinical Cmax of the agent was known.
Compounds. The drugs and investigational agents: ipatasertib (NSC767898), abemaciclib(NSC768073), selumetinib (NSC741078), trametinib (758246), adavosertib (NSC754352), everolimus (NSC733504), sapanisertib (NSC764658), vemurafenib (NSC761431), venetoclax (NSC766270), copanlisib (NSC809693), apelisib (NSC765974), palbociblib (NSC758247), vemurafenib (NSC761431), dabrafenib (NSC764134), ravoxertinib (NSC781343), BMS-387032 (NSC767048), sotorasib (NSC818433), talazoparib (NSC767125) and afursertib (NSC778305), were obtained from the National Cancer Institute (NCI) Developmental Therapeutics Program Chemical Repository. The FDA-approved anticancer drug set is available from the NCI Developmental Therapeutics Program. […] The stock solutions were prepared in dimethyl sulfoxide (DMSO, Sigma-Aldrich, St. Louis, MO, cat. D2650) at 800-fold the tested concentration and stored at -70 degrees C prior to their use. All drugs and investigational agents were tested over a range starting from a high concentration at or near the clinical Cmax and decreasing in half-log increments. If the clinical Cmax for an agent had not been determined, the highest concentration tested was 10 microM.
NCI60 Cell Culture. NCI60 cell lines were obtained from the NCI Developmental Therapeutics Program Tumor Repository. […] The optimal seeding densities for each of the cell lines at each time point assessed were determined prior to performing the concentration response studies. […]
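Also: spheroids exposed to the agents for seven days before readout.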

SMILES	viability, T/C (compound alone 0.316 µM)	viability, T/C (compound alone 0.1 µM)
CCN1CCN(Cc2ccc(Nc3ncc(F)c(-c4cc(F)c5nc(C)n(C(C)C)c5c4)n3)nc2)CC1	141, 116, 131 (2×), 126 (2×), 124, 122 (2×), 134, 144, 135, 132%	–
CC(C)NCC(C(=O)N1CCN(c2ncnc3c2C(C)CC3O)CC1)c1ccc(Cl)cc1 (stereo not drawn)	77.5, 82.9, 77.8, 89, 80.7, 82.4, 94.8, 72.1, 81.4, 69.7, 75.9, 84.3, 72.4%	105, 106, 108, 115, 120, 107, 118, 111, 95.7, 103, 90.4, 113, 104%

Reference: PubChem BioAssay AID2060342 (Molecular Pharmacology Branch, DTP, NCI, 2025)
